Results on 31 sequences are retold here after publication PMC12820563.

This is one part of the list. The list includes weakly bound sequences.

For this experiment, the target named is T1, MBP-FoxP3dN (UniProt Q99JB6).
T1 sequence: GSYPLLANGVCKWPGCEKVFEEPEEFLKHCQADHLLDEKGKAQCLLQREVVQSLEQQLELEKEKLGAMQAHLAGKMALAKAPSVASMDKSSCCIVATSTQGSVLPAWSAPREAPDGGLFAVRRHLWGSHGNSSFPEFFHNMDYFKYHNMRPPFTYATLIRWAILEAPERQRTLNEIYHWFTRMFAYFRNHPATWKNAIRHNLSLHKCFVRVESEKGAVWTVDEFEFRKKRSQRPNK
The experiment can be described thus: PD-seq (MBP pull-down with sequencing). Conditions: 20 mM Tris-HCl pH 7.5, 100 mM NaCl, 1.5 mM MgCl2, 0.4 uM protein, 0.1 uM dsDNA library, 30 min, room temperature, amylose pull-down; high values mean tight binding; double strand, one strand shown.
Regarding “GATGATTGTTCTCCCAGCTGATGAATTCAGGAGTTCGAGTAAACAAATTTTCCTAATCTTTCTGTTCAAGCGCCATCTAC”, the binding signal (RPM ratio (pull-down/input)) was 0.341. Take “GATGATTGTTCTCCCAGCTGATGAATTCCCACAATCGAGTAAACAAATTTTCCTAATCTTTCTGTTCAAGCGCCATCTAC”: the binding signal (RPM ratio (pull-down/input)) is 0.317. Turning to “GATGATTGTTCTCCCAGCTGATGAATTTCTGAGTTCGAGTAAACAAATTTTCCTAATCTTTCTGTTCAAGCGCCATCTAC”, the binding signal (RPM ratio (pull-down/input)) was determined as 0.388. For the sequence “GATGATTGTTCTCCCAGCTGATGAATTCCTGTCGTCGAGTAAACAAATTTTCCTAATCTTTCTGTTCAAGCGCCATCTAC”, the binding signal (RPM ratio (pull-down/input)) stood at 0.358. For the sequence “GATGATTGTTCTCCCAGCTGATGAATTGCCCCAATCGAGTAAACAAATTTTCCTAATCTTTCTGTTCAAGCGCCATCTAC”, the binding signal (RPM ratio (pull-down/input)) is 0.554. With “GATGATTGTTCTCCCAGCTGATGAATTCGGTTTTTCGAGTAAACAAATTTTCCTAATCTTTCTGTTCAAGCGCCATCTAC”, the binding signal (RPM ratio (pull-down/input)) was 1.58.

Take “GATGATTGTTCTCCCAGCTGATGAATTTGAATAGTCGAGTAAACAAATTTTCCTAATCTTTCTGTTCAAGCGCCATCTAC”: the binding signal (RPM ratio (pull-down/input)) worked out at 0.527. As for “GATGATTGTTCTCCCAGCTGATGAATTCCACCCATCGAGTAAACAAATTTTCCTAATCTTTCTGTTCAAGCGCCATCTAC”, the binding signal (RPM ratio (pull-down/input)) worked out at 0.349. For “GATGATTGTTCTCCCAGCTGATGAATTTCACGCGTCGAGTAAACAAATTTTCCTAATCTTTCTGTTCAAGCGCCATCTAC”, the binding signal (RPM ratio (pull-down/input)) turned out to be 0.675. In the case of “GATGATTGTTCTCCCAGCTGATGAATTCATCACGTCGAGTAAACAAATTTTCCTAATCTTTCTGTTCAAGCGCCATCTAC”, the binding signal (RPM ratio (pull-down/input)) was 1.07.

Consider “GATGATTGTTCTCCCAGCTGATGAATTTGGATCTTCGAGTAAACAAATTTTCCTAATCTTTCTGTTCAAGCGCCATCTAC”, for which the binding signal (RPM ratio (pull-down/input)) came to 0.417.

Take “GATGATTGTTCTCCCAGCTGATGAATTACTCGTATCGAGTAAACAAATTTTCCTAATCTTTCTGTTCAAGCGCCATCTAC”: the binding signal (RPM ratio (pull-down/input)) was found to be 0.46.

Turning to “GATGATTGTTCTCCCAGCTGATGAATTGGGCCTTTCGAGTAAACAAATTTTCCTAATCTTTCTGTTCAAGCGCCATCTAC”, the binding signal (RPM ratio (pull-down/input)) was 3.74. For “GATGATTGTTCTCCCAGCTGATGAATTCAGCGGATCGAGTAAACAAATTTTCCTAATCTTTCTGTTCAAGCGCCATCTAC”, the binding signal (RPM ratio (pull-down/input)) came out at 0.264.

“GATGATTGTTCTCCCAGCTGATGAATTTGAATGGTCGAGTAAACAAATTTTCCTAATCTTTCTGTTCAAGCGCCATCTAC”: the binding signal (RPM ratio (pull-down/input)) was 1.08. “GATGATTGTTCTCCCAGCTGATGAATTTGTACGGTCGAGTAAACAAATTTTCCTAATCTTTCTGTTCAAGCGCCATCTAC”: the binding signal (RPM ratio (pull-down/input)) stood at 1.76. The value for “GATGATTGTTCTCCCAGCTGATGAATTGCAGGACTCGAGTAAACAAATTTTCCTAATCTTTCTGTTCAAGCGCCATCTAC” was 0.489; that for “GATGATTGTTCTCCCAGCTGATGAATTCTTCGCTTCGAGTAAACAAATTTTCCTAATCTTTCTGTTCAAGCGCCATCTAC” was 0.256. For “GATGATTGTTCTCCCAGCTGATGAATTTGATAGCTCGAGTAAACAAATTTTCCTAATCTTTCTGTTCAAGCGCCATCTAC”, the binding signal (RPM ratio (pull-down/input)) amounted to 1.98. The value for “GATGATTGTTCTCCCAGCTGATGAATTTGCTTGGTCGAGTAAACAAATTTTCCTAATCTTTCTGTTCAAGCGCCATCTAC” was 5.74; that for “GATGATTGTTCTCCCAGCTGATGAATTCCACGGCTCGAGTAAACAAATTTTCCTAATCTTTCTGTTCAAGCGCCATCTAC” was 0.22; that for “GATGATTGTTCTCCCAGCTGATGAATTGGAGGTATCGAGTAAACAAATTTTCCTAATCTTTCTGTTCAAGCGCCATCTAC” was 0.497. Take “GATGATTGTTCTCCCAGCTGATGAATTGGACCACTCGAGTAAACAAATTTTCCTAATCTTTCTGTTCAAGCGCCATCTAC”: the binding signal (RPM ratio (pull-down/input)) was determined as 0.382. With “GATGATTGTTCTCCCAGCTGATGAATTTGGAGCATCGAGTAAACAAATTTTCCTAATCTTTCTGTTCAAGCGCCATCTAC”, the binding signal (RPM ratio (pull-down/input)) was determined as 0.753. “GATGATTGTTCTCCCAGCTGATGAATTGTTGGGTTCGAGTAAACAAATTTTCCTAATCTTTCTGTTCAAGCGCCATCTAC”: the binding signal (RPM ratio (pull-down/input)) turned out to be 1.91. For “GATGATTGTTCTCCCAGCTGATGAATTTCGCCCCTCGAGTAAACAAATTTTCCTAATCTTTCTGTTCAAGCGCCATCTAC” the value was 1.99. In the case of “GATGATTGTTCTCCCAGCTGATGAATTTGGGCACTCGAGTAAACAAATTTTCCTAATCTTTCTGTTCAAGCGCCATCTAC”, the binding signal (RPM ratio (pull-down/input)) amounted to 0.562. Consider “GATGATTGTTCTCCCAGCTGATGAATTCGTCGCCTCGAGTAAACAAATTTTCCTAATCTTTCTGTTCAAGCGCCATCTAC”, for which the binding signal (RPM ratio (pull-down/input)) was found to be 0.691. Regarding “GATGATTGTTCTCCCAGCTGATGAATTAGCAGGTTCGAGTAAACAAATTTTCCTAATCTTTCTGTTCAAGCGCCATCTAC”, the binding signal (RPM ratio (pull-down/input)) was found to be 0.332. For “GATGATTGTTCTCCCAGCTGATGAATTCGATAGCTCGAGTAAACAAATTTTCCTAATCTTTCTGTTCAAGCGCCATCTAC” the value was 0.887. “GATGATTGTTCTCCCAGCTGATGAATTATGAAAATCGAGTAAACAAATTTTCCTAATCTTTCTGTTCAAGCGCCATCTAC”: the binding signal (RPM ratio (pull-down/input)) amounted to 0.243.
